# The list shows a part of the results.
# B1: BT3172pd (Bacteroides thetaiotaomicron) (protein)
# chain: MLPLRAEHYYYKQISLKEGLPSNVRCILRDEQGFIWIGTKAGLGKFDGHQLKRYKHQANDPHSLLHNLIYQIAEDKQHNIWILTEKGIARYQQQSNNFTFPTDEEGNYITAYSFCLVPDGILFGGKDRIYKYSYKDSSLRLLQYFNANSFKITALSVWDSKTLLCCSRWTGLYLVDLQTGEHRRPPFDCGPEITSMITDSKNRIWIAPYSGGLRCYSRDGKLSASYTTHNSSLSNDIVLSLAEREEQLWIGTDGGGINILHPETGEISQLEYIPGRENYSLPANSILCLHNDYNNNVWAGSTCNGLISIREVSMKTYTDVVPGNDRGLSNGTVRSLYRQSPDSIWIGTDGGGINLFSPHTEKFTHYSSTWGDKVAFISGFTPGKLLISLFSKGVFVFNPATGEKQPFTIIDKETTTRLCNRGKSVNLYQNTPNTVLFLGDHIYQYHLKEKKFSTITEEEGKDIVGTLVPFDHQENLTYINDIKHIYELDDQTSRLKTVFECYTDTVISSVSHDEQGHFWIGSNFGLIHYDPVLKSRTLVPTNLFTEINMVLCDQKGKVWIGVDNMLFAYFIKEQKFVLFGESNGAIQNEYLPNARLVNEQGDAYIGGVKGMLRIDGQLLLNTSEMPELQLLDITINGESANHEWYNHPAKISVPWNSNISIRIMSREEDIFRQKIYRYQIEGLNNEYTESYNPELVIRSLLPGSYRIMASCTAKDGSWIPDQQVLELTVLPPWYRTHHHHHH
# What was measured:
# Experiment in all cases: glycan array binding signal (z-score within array); higher = stronger binding
# Details in all cases: glycan notation: IUPAC condensed, linker removed
# Gal(b1-4)Glc = target: Gal(b1-4)Glc
# Procedure, shortened: (§1)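 Arrays were curated from the Consortium for Functional Glycomics database, 3228 in total, and kept only where the protein sequence was available. Binding is expressed as a within-array Z-score. This score was averaged across arrays of the same protein sequence at different concentrations or buffers and across linkers, and negative values can be read as non-binding.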
# Gal(b1-4)Glc6S = target: Gal(b1-4)Glc6S
# Procedure, shortened: as §1
# Gal(b1-4)GlcNAc = target: Gal(b1-4)GlcNAc
# Procedure, shortened: as §1
# [1] = target: Gal(b1-4)GlcNAc(a1-6)Gal(b1-4)GlcNAc
# Procedure, shortened: as §1
# Gal(b1-4)GlcNAc(b1-2)Man = target: Gal(b1-4)GlcNAc(b1-2)Man
# Procedure, shortened: as §1
# [2] = target: Gal(b1-4)GlcNAc(b1-2)Man(a1-3)Man(b1-4)GlcNAc(b1-4)GlcNAc
# Procedure, shortened: as §1
# [3] = target: Gal(b1-4)GlcNAc(b1-2)Man(a1-3)[Gal(b1-4)GlcNAc(b1-2)Man(a1-6)]Man(b1-4)GlcNAc(b1-4)GlcNAc
# Procedure, shortened: as §1
# [4] = target: Gal(b1-4)GlcNAc(b1-2)Man(a1-3)[Gal(b1-4)GlcNAc(b1-2)Man(a1-6)]Man(b1-4)GlcNAc(b1-4)[Fuc(a1-6)]GlcNAc
# Procedure, shortened: as §1
# [5] = target: Gal(b1-4)GlcNAc(b1-2)Man(a1-3)[Gal(b1-4)GlcNAc(b1-2)Man(a1-6)][Gal(b1-4)GlcNAc(b1-4)]Man(b1-4)GlcNAc(b1-4)[Fuc(a1-6)]GlcNAc
# Procedure, shortened: as §1
# [6] = target: Gal(b1-4)GlcNAc(b1-2)Man(a1-3)[Gal(b1-4)GlcNAc(b1-2)Man(a1-6)][GlcNAc(b1-4)]Man(b1-4)GlcNAc(b1-4)[Fuc(a1-6)]GlcNAc
# Procedure, shortened: as §1
# [7] = target: Gal(b1-4)GlcNAc(b1-2)Man(a1-3)[GlcNAc(b1-2)Man(a1-6)]Man(b1-4)GlcNAc(b1-4)GlcNAc
# Procedure, shortened: as §1
# [8] = target: Gal(b1-4)GlcNAc(b1-2)Man(a1-3)[GlcNAc(b1-4)][Gal(b1-4)GlcNAc(b1-2)Man(a1-6)]Man(b1-4)GlcNAc(b1-4)GlcNAc
# Procedure, shortened: as §1
# [9] = target: Gal(b1-4)GlcNAc(b1-2)Man(a1-3)[Man(a1-6)]Man(b1-4)GlcNAc(b1-4)GlcNAc
# Procedure, shortened: as §1
# [10] = target: Gal(b1-4)GlcNAc(b1-2)Man(a1-6)Man(b1-4)GlcNAc(b1-4)GlcNAc
# Procedure, shortened: as §1
# [11] = target: Gal(b1-4)GlcNAc(b1-2)Man(a1-6)[GlcNAc(b1-2)Man(a1-3)]Man(b1-4)GlcNAc(b1-4)GlcNAc
# Procedure, shortened: as §1
# [12] = target: Gal(b1-4)GlcNAc(b1-2)Man(a1-6)[Man(a1-3)]Man(b1-4)GlcNAc(b1-4)GlcNAc
# Procedure, shortened: as §1
# [13] = target: Gal(b1-4)GlcNAc(b1-2)[Gal(b1-4)GlcNAc(b1-4)]Man(a1-3)[Gal(b1-4)GlcNAc(b1-2)Man(a1-6)]Man(b1-4)GlcNAc(b1-4)GlcNAc
# Procedure, shortened: as §1
# [14] = target: Gal(b1-4)GlcNAc(b1-2)[Gal(b1-4)GlcNAc(b1-4)]Man(a1-3)[Gal(b1-4)GlcNAc(b1-2)[Gal(b1-4)GlcNAc(b1-6)]Man(a1-6)]Man(b1-4)GlcNAc(b1-4)GlcNAc
# Procedure, shortened: as §1
# [15] = target: Gal(b1-4)GlcNAc(b1-2)[Gal(b1-4)GlcNAc(b1-4)]Man(a1-3)[GlcNAc(b1-4)][Gal(b1-4)GlcNAc(b1-2)Man(a1-6)]Man(b1-4)GlcNAc(b1-4)GlcNAc
# Procedure, shortened: as §1
# [16] = target: Gal(b1-4)GlcNAc(b1-2)[Gal(b1-4)GlcNAc(b1-4)]Man(a1-3)[GlcNAc(b1-4)][Gal(b1-4)GlcNAc(b1-2)[Gal(b1-4)GlcNAc(b1-6)]Man(a1-6)]Man(b1-4)GlcNAc(b1-4)GlcNAc
# Procedure, shortened: as §1
# [17] = target: Gal(b1-4)GlcNAc(b1-2)[Gal(b1-4)GlcNAc(b1-6)]Man(a1-6)[Gal(b1-4)GlcNAc(b1-2)Man(a1-3)]Man(b1-4)GlcNAc(b1-4)GlcNAc
# Procedure, shortened: as §1
# [18] = target: Gal(b1-4)GlcNAc(b1-2)[Gal(b1-4)GlcNAc(b1-6)]Man(a1-6)[Gal(b1-4)GlcNAc(b1-2)Man(a1-3)]Man(b1-4)GlcNAc(b1-4)[Fuc(a1-6)]GlcNAc
# Procedure, shortened: as §1
# [19] = target: Gal(b1-4)GlcNAc(b1-2)[Gal(b1-4)GlcNAc(b1-6)]Man(a1-6)[GlcNAc(b1-4)][Gal(b1-4)GlcNAc(b1-2)Man(a1-3)]Man(b1-4)GlcNAc(b1-4)GlcNAc
# Procedure, shortened: as §1
# [20] = target: Gal(b1-4)GlcNAc(b1-2)[Gal(b1-4)GlcNAc(b1-6)]Man(a1-6)[GlcNAc(b1-4)][Gal(b1-4)GlcNAc(b1-2)[Gal(b1-4)GlcNAc(b1-4)]Man(a1-3)]Man(b1-4)GlcNAc(b1-4)[Fuc(a1-6)]GlcNAc
# Procedure, shortened: as §1
# [21] = target: Gal(b1-4)GlcNAc(b1-3)Gal(b1-3)GalNAc
# Procedure, shortened: as §1
# [22] = target: Gal(b1-4)GlcNAc(b1-3)Gal(b1-3)GlcNAc
# Procedure, shortened: as §1
# [23] = target: Gal(b1-4)GlcNAc(b1-3)Gal(b1-4)Glc
# Procedure, shortened: as §1
# [24] = target: Gal(b1-4)GlcNAc(b1-3)Gal(b1-4)GlcNAc
# Procedure, shortened: as §1
# [25] = target: Gal(b1-4)GlcNAc(b1-3)Gal(b1-4)GlcNAc(b1-2)Man(a1-3)[Gal(b1-4)GlcNAc(b1-3)Gal(b1-4)GlcNAc(b1-2)Man(a1-6)]Man(b1-4)GlcNAc(b1-4)GlcNAc
# Procedure, shortened: as §1
# [26] = target: Gal(b1-4)GlcNAc(b1-3)Gal(b1-4)GlcNAc(b1-2)Man(a1-3)[Gal(b1-4)GlcNAc(b1-3)Gal(b1-4)GlcNAc(b1-2)Man(a1-6)]Man(b1-4)GlcNAc(b1-4)[Fuc(a1-6)]GlcNAc
# Procedure, shortened: as §1
binder,measurement,setting,value
B1,glycan array binding signal (z-score),Gal(b1-4)Glc,0.422
same,glycan array binding signal (z-score),Gal(b1-4)Glc6S,2.32
same,glycan array binding signal (z-score),Gal(b1-4)GlcNAc,0.216
same,glycan array binding signal (z-score),[1],-0.411
same,glycan array binding signal (z-score),Gal(b1-4)GlcNAc(b1-2)Man,0.948
same,glycan array binding signal (z-score),[2],0.77
same,glycan array binding signal (z-score),[3],-0.884
same,glycan array binding signal (z-score),[4],-0.075
same,glycan array binding signal (z-score),[5],-0.646
same,glycan array binding signal (z-score),[6],-0.967
same,glycan array binding signal (z-score),[7],-0.146
same,glycan array binding signal (z-score),[8],-0.425
same,glycan array binding signal (z-score),[9],-0.349
same,glycan array binding signal (z-score),[10],-0.309
same,glycan array binding signal (z-score),[11],0.924
same,glycan array binding signal (z-score),[12],-0.54
same,glycan array binding signal (z-score),[13],0.034
same,glycan array binding signal (z-score),[14],-0.785
same,glycan array binding signal (z-score),[15],-0.47
same,glycan array binding signal (z-score),[16],-0.569
same,glycan array binding signal (z-score),[17],0.117
same,glycan array binding signal (z-score),[18],0.113
same,glycan array binding signal (z-score),[19],0.038
same,glycan array binding signal (z-score),[20],-0.188
same,glycan array binding signal (z-score),[21],-0.351
same,glycan array binding signal (z-score),[22],-0.739
same,glycan array binding signal (z-score),[23],-0.591
same,glycan array binding signal (z-score),[24],-0.445
same,glycan array binding signal (z-score),[25],0.129
same,glycan array binding signal (z-score),[26],-0.257

# From the supplement of paper PMC8728848
